# According to PubChem BioAssay AID652104 (National Center for Advancing Translational Sciences (NCATS), 2013):
# Hit rate of the full screen: of about 410,000 compounds, about 7,200 (1.8%) were called active. Inconclusive results, whose numbers are uncertain, are shown with a selection of clear calls. The call rests on the fitted dose curve; in most records, active means well fitted activation curve with a large enough effect; inconclusive means small, poorly fitted or top-dose-only effect, or another doubt; inactive means no such curve, though single readings can be large or run the other way. Potencies of inconclusive entries are left out as doubtful fits.
# Test: qHTS of TDP-43 Inhibitors; further: nearly all actives have a fitted effect of over 50% in size; on growth rescue (activation): % of control where 0% means no effect
# Conditions: TDP-43 expressing yeast growth rescue, BacTiter-Glo, 24 h; growth rescue (activation): at 46.1 µM (top of the series) unless noted
# How it was run: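 Luminescence from BacTiter-Glo reports growth of TDP-43-expressing yeast after 24 hr at 30 deg C with compound. Cells were raffinose-pregrown to mid-log, then seeded in galactose medium at OD600=0.02.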
# Potency means the concentration at half of the fitted maximal effect; tags describe the fitted curve by direction and shape.
Compound,Potency,growth rescue (activation)
Cc1ccc(Nc2nc(C)cc(C)c2C#N)c(C)c1,"inconclusive [activator, partial curve, poor fit]",–
CCc1ccc(OC(C)C(=O)N2CCC(c3nc4ccccc4o3)CC2)cc1 (stereo not given),"inconclusive [activator, single point]",–
Cc1sc(NC(=O)CCC(=O)O)c(C(N)=O)c1-c1ccccc1,–,inactive: 11.9%
COc1ccc(S(=O)(=O)NCC(c2ccco2)S(=O)(=O)c2ccc(C)cc2)cc1F (stereo not given),"inconclusive [activator, partial curve]",–
CCn1nc(C)c2c(-c3ccccc3)cc(=O)n(C(C)C(=O)NCCC(C)C)c21 (stereo not given),"inconclusive [activator, partial curve]",–
C=CCN1N=C(c2ccc(Cl)s2)CSC1=O,"inconclusive [activator, partial curve]",–
O=C(c1ccc(-c2cccc(Cl)c2Cl)o1)N1CCOCC1,"inconclusive [activator, partial curve]",–
COc1ccc2c(c1)C(=O)[C@@H](O)[C@H](c1ccc(OC)c(Br)c1)O2,"inconclusive [activator, partial curve]",–
Cc1ccc([C@@H]2C[C@H]3[C@@H](CN2S(=O)(=O)c2ccc(Cl)cc2)C(=O)C[C@@H](c2ccccc2F)N3S(=O)(=O)c2ccc(C)cc2)cc1,"inconclusive [activator, partial curve]",–
Cc1cc(C)cc(C(=O)OCC(=O)NC(=O)NC2CCCC2)c1,"inconclusive [activator, single point]",–
CC(C)(CNC(=O)Cc1ccc(Cl)cc1Cl)N1CCOCC1,–,inactive: -19.1%
COc1ccc(OC)c(S(=O)(=O)NCc2ccc(N3CCN(C)CC3)cc2)c1,"inconclusive [activator, partial curve]",–
Cc1ccc2onc(CC(=O)N3CCN(c4cc(Cl)ccc4C)CC3)c2c1,"inconclusive [activator, partial curve]",–
CC(C)CCNc1nc2c(c(=O)n(Cc3cccc(F)c3)c(=O)n2C)n1C,"inconclusive [activator, single point]",–
Cc1cc(-c2ccc(C)c(S(=O)(=O)NCc3cccc(Br)c3)c2)on1,active: 35.5 µM,–
O=C(NCc1ccco1)c1csc(Nc2ccccc2Cl)n1,"inconclusive [activator, partial curve]",–
COc1ccc(C(=O)NCC(=O)OCc2cccc(Br)c2)cc1,"inconclusive [activator, partial curve]",–
O=C(Nc1ccc2c(c1)OCO2)c1cc(C2CCCCN2C(=O)c2ccc3c(c2)CCO3)on1 (stereo not given),"inconclusive [activator, single point]",–
Cc1ccc(CCC(=O)Nc2cc(Cl)ccc2Cl)o1,"inconclusive [activator, single point]",–
O=C(Nc1ccc(Cl)cn1)c1cc2c(s1)-c1ccccc1OC2,–,inactive: 10.2%
CCC(Oc1ccccc1)C(=O)Nc1cc(-c2cccc(C)c2)nn1-c1ccccc1 (stereo not given),–,inactive: -8.98%
Cc1cc(C)n2nc(-c3cnn(C)c3C(F)(F)F)cc2n1,active: 12.6 µM,–
Cc1ccc(NC(=O)Cc2cccs2)cc1Cl,active: 20 µM,–

Compound,Potency,growth rescue (activation)
COc1ccc(CCN2C(=O)c3ccccc3C2c2nnnn2C(C)C)cc1OC (stereo not given),"inconclusive [activator, full curve, poor fit]",–
COc1ccccc1Cn1c(CNS(=O)(=O)c2ccc(C(C)C)cc2)nc2cccnc21,–,inactive: 0%
Cn1nc(C(C)(C)C)c([N+](=O)[O-])c1C(=O)Nc1ccccc1,"inconclusive [activator, partial curve]",–
O=[N+]([O-])c1cccnc1N1CCC(c2cc(-c3ccc(Cl)cc3)n[nH]2)CC1,"inconclusive [activator, full curve]",–
CCn1nc(C(=O)Nc2nc(-c3ccccn3)cs2)c2ccccc2c1=O,"inconclusive [activator, partial curve]",–
Cc1ccc(C)c(NC(=S)NNC(=O)c2csc(C)c2)c1,"inconclusive [activator, partial curve]",–
Cc1cccc(/C=C(\C#N)c2nc3ccccc3c(=O)[nH]2)c1,"inconclusive [activator, partial curve]",–
O=S(=O)(NC1Cc2ccccc2C1)c1ccccc1,"inconclusive [activator, single point]",–
O=C(CSc1ncnc2c1cnn2-c1cccc(Cl)c1)NCC1CCCO1 (stereo not given),"inconclusive [activator, single point]",–
CCCS(=O)(=O)Nc1cccc(-c2nc3cccnc3s2)c1,"inconclusive [activator, partial curve]",–
COc1ccc(Cc2c(-c3ccco3)nc3ccc(Br)cn23)c(C)c1,active: 4.47 µM,–
CCCc1nc2oc3c(NCC(C)O)ncnc3c2c2c1CCCC2 (stereo not given),"inconclusive [activator, partial curve]",–
Cc1ccc(CCC(=O)Nc2ccc(C#N)cc2)o1,–,inactive: 17.6%
Cc1cccc(C)c1NC(=O)C(c1ccccc1)N1CCN(C)CC1 (stereo not given),–,inactive: 23.5%
CCc1nc(NCCC(C)C)c(C#N)c2c1CCCC2,–,inactive: 1.17%
CN1OC[C@@H]2CN[C@H](c3ccc(-c4ccccc4)cc3)C[C@@H]21,–,inconclusive: 2.87% [activator]
CCCc1nc2sc3ccccc3c(=O)c2c(=O)n1Cc1ccco1,"inconclusive [activator, single point]",–
S=c1[nH]nc(COc2ccccc2)n1C1CCCCC1,"inconclusive [activator, single point]",–
c1ccc(Nc2ccnc(Nc3ccccc3)n2)cc1,–,inactive: -16%
Oc1[nH]c2ccccc2c1N=NC(=S)N1CCOCC1,"inconclusive [activator, partial curve]",–
O=C(NCc1ccccc1)Oc1cccc(Cl)c1,–,inactive: -12%
Cc1cccc(Nc2n[nH]c(C)c2[N+](=O)[O-])c1,"inconclusive [activator, partial curve]",–
